Source: paper PMC12136788
This is one part of the list.

T1: UNK ZnF1-3 (human, UniProt Q9C0B0 31-174)
T1 sequence: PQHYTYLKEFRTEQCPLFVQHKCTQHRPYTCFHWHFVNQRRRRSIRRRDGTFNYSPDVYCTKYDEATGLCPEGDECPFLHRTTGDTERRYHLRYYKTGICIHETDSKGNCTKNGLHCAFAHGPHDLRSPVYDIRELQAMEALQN

B1: 120771656_120772108_1059_3pUTR_ENSMUSG00000027272_ENSMUST00000028728|mouse|control|control (ssRNA)
RNA: GGGAGUUCUACAGUCCGACGAUCAAAAUAUCUGUCUAAAGUCACUUGAAUAGCUCAUAAUUUUGUUCAUCCAGGAGCCAAGGCGCAGAGCGAAUUUCUGGUGAGCCAUAACCACGGAGUGCAGCACUUCCACAUGGAGGGGGUCAACAGAGGAUUGAGCAUCA
B2: 21629917_21630847_1285_CDS_ENSG00000004700_ENST00000444129|human|control|control (ssRNA)
RNA: GGGAGUUCUACAGUCCGACGAUCCUGCCGAACCUCAUAAUAUAGAUUUGGCCUAUUAAAAGAAGCUGUAAAAGUAAAACACUUUUCAAUGCACAAAAUUUUCUGAGCAUCCGUCAAAACGUGAUUUGUUGCAGUUGCAGUCAGCAACAGAGGAUUGAGCAUCA
B3: chrX:153670519:153670520:+_ENSG00000203879_ENST00000447750|hu_mus|FALSE|FALSE (ssRNA)
RNA: GGGAGUUCUACAGUCCGACGAUCUGCAGGCUCAACUUCCUUUUCUGGUUCUGCAGUCUCUACAGUGGUGCUGGCAAUGGCGAUGUAUUUGCCCUGUGCGGCCACGUUGUGCGCAUAGGAGAUCAUGCACACAUAGAUGUCUGACAACAGAGGAUUGAGCAUCA
B4: chr3:9412954:9412955:+_ENSG00000134077_ENST00000452837|hu_mus|hu_hu_hu_mus_False|1_38 (ssRNA)
RNA: GGGAGUUCUACAGUCCGACGAUCGGUUGAUAUCUCUUCUUUGAUGGCUGGAUUUUCAUAAUAGUCCAAGAUAUGUGAAUCUGAAGUGCUGCUGGCAAACUCUUUUUUACCAUCUUUCUCAUCUGCUUUGUCUCCUUGUCCAUUCAACAGAGGAUUGAGCAUCA
B5: 49421636_49421834_14532_CDS_ENSG00000167548_ENST00000301067|human|control|control (ssRNA)
RNA: GGGAGUUCUACAGUCCGACGAUCCAACACUGCAUCAAACUGCUUCAGCCAAUCAGGGCCAGUGUCUGGGCUCUUGCCUUCCAGACCCUUUUCCUUCCCACCAGGACCCUCAGCUUCCCCCUUCUUUGGCUCAGUGCCUGCCCGCAACAGAGGAUUGAGCAUCA
B6: chr6:160200208:160200209:-_ENSG00000120438_ENST00000420894|hu_mus|motif|central (ssRNA)
RNA: GGGAGUUCUACAGUCCGACGAUCAAUCCGAAGGAUGGUGAUUGCAGCCUCUGUUGCGAACUUCAGGCUCUUCACUUUAACGGUGGUUGGUUCAAACACCCCUGCUUGCUUGUUGUCUCGUGGUUUCCCAUGGACCAAAUCAAGCAACAGAGGAUUGAGCAUCA
B7: chr2:202488911:202488912:-_ENSG00000155755_ENST00000286196|hu_mus|hu_hu_hu_mus_False|18_58 (ssRNA)
RNA: GGGAGUUCUACAGUCCGACGAUCAUUGAAACAUUUUUCAUAAUCUCCAGUAGCAUUUCAGCAUUAUGUAACAAAAGAUCUAUUACAAAUACAUGUAUCUUAUAAAAAUACACUUAAAUUUAAAAACGGGGAGCGCAGGCGCCACAACAGAGGAUUGAGCAUCA
B8: 44444931_44445051_2242_3pUTR_ENSMUSG00000032097_ENSMUST00000170489|mouse|control|control (ssRNA)
RNA: GGGAGUUCUACAGUCCGACGAUCGUGUGUAAAGAUGAUAUUCUUAAUGGUCUUGUAGCAUAAGGCACUUCGCACAAAUAAGUAAUAAGCUCUUCAGGCUUAAAAACGGAUGAAUAAUCAGGGAGAAGUUGAAAUGCAGUAGAGCAACAGAGGAUUGAGCAUCA
B9: chr12:39756943:39756944:-_ENSG00000139116_ENST00000544797|hu_mus|hu_hu_hu_mus_False|28_48 (ssRNA)
RNA: GGGAGUUCUACAGUCCGACGAUCGGUUUGGCUGUUACCCCCAAGGGAAUCCUGCAAGAGUCUUGUCAGCUUAGAGUCUCUGUAAGGGACAUGUGUGGCUCUCUUGCUCUUGUCUCCCAAGGCGCUGAUUACAUUCCCAAGAGCCAACAGAGGAUUGAGCAUCA
B10: chr1:39494564:39494565:+_ENSG00000168653_ENST00000372967|hu_hu|hu_hu_hu_mus_True|78_108 (ssRNA)
RNA: GGGAGUUCUACAGUCCGACGAUCAUGUGCACGUCUCAUCGUUUUGUACCGAAGCAAACACUCUACGAAGUCAUCGAACUCUAUCUUGCACUCCUUUUUCGCCCGGGUCCCACCGAUCCCGUGUGCACACUCUAUCCACUCUUUCAACAGAGGAUUGAGCAUCA
B11: chr2:217001844:217001845:+_ENSG00000079246_ENST00000392132|hu_hu|hu_hu_hu_mus_False|38_58 (ssRNA)
RNA: GGGAGUUCUACAGUCCGACGAUCACCAACUUGAGGAUUAGAUCUUUUGUCAUAAGCAUAUCGGACGAUGGCGACCAUGUCUAAGUCAUCCAAAGCAUGAAUCAGGGAGGAAAGGGCAACAGCUGCCGCCUCAUCAUCCUUUGCCAACAGAGGAUUGAGCAUCA
B12: chr4:126724723:126724724:-_ENSMUSG00000043872_ENSMUST00000106102|mus_mus|FALSE|FALSE (ssRNA)
RNA: GGGAGUUCUACAGUCCGACGAUCGAUGUGCCUACGACACAAUACGUCAACUGGAAUACUUUAAAGGAGAAGAGUCAGGUAAGAGGGUCAAUCAGUCUCAAGAGCUUACAAAUUCAAGACUAGCCUAGGCUACAGAGCAAGAUCCAACAGAGGAUUGAGCAUCA
B13: chr4:140556289:140556290:+_ENSMUSG00000036622_ENSMUST00000037055|mus_mus|mus_mus_mus_hu_False|1_68 (ssRNA)
RNA: GGGAGUUCUACAGUCCGACGAUCGAUGGAGCUCACCAGGCCCCCUUUUGCCGUGCAGAACCCUGUGCGAGUCACCACUGCCAGGACGUGCGGUCCCACAUAGGCCCGGGCCUGCAAGAUGAGGGUCCCGCAGAAGAGGGUGUGCAACAGAGGAUUGAGCAUCA
B14: chr2:104630212:104630213:-_ENSMUSG00000074994_ENSMUST00000117237|mus_mus|FALSE|FALSE (ssRNA)
RNA: GGGAGUUCUACAGUCCGACGAUCUGUAGUGUUAAAAGAUGAAUCUUGAAGCACCAAAGGUGAGGUGGUCGCAAAGUUUCUAUUGCUAAAGGUAGAUGAAUGCUGAUAGGCAGACAAAGUUGGUGGUGGAAGUGUCCCAGUGGUCAACAGAGGAUUGAGCAUCA

Target: T1, UNK ZnF1-3
Experiment: nsRBNS (natural sequence RNA bind-n-seq); RBNS binding buffer (assumed for nsRBNS): 25 mM Tris pH 7.5, 150 mM KCl, 3 mM MgCl2, 0.01% Triton X-100, 500 ug/ml BSA, 20 U/ml SUPERase-In, 4 C; UNK is unkempt and MSI1 is Musashi-1; names of the RNAs are library labels; protein concentration not given here; high values mean tight binding

**Q.** With B1 as the binder, how does the binding signal read?
**A.** 1.46 enrichment R

**Q.** For B2, which binding signal is on record?
**A.** 0.801 enrichment R

**Q.** B3 was tested. Which binding signal did it give?
**A.** 0.648 enrichment R

**Q.** B4 was tested. Which binding signal did it give?
**A.** 0.463 enrichment R

**Q.** With B5 as the binder, how does the binding signal read?
**A.** 1.09 enrichment R

**Q.** B6 was tested. Which binding signal did it give?
**A.** 0.515 enrichment R

**Q.** Which binding signal does the source give for B7 here?
**A.** 2.95 enrichment R

**Q.** With B8 as the binder, how does the binding signal read?
**A.** 1.31 enrichment R

**Q.** Which binding signal does the source give for B9 here?
**A.** 0.728 enrichment R

**Q.** Which binding signal does the source give for B10 here?
**A.** 0.655 enrichment R

**Q.** For B11, which binding signal is on record?
**A.** 1.62 enrichment R

**Q.** With B12 as the binder, how does the binding signal read?
**A.** 1.62 enrichment R

**Q.** For B13, which binding signal is on record?
**A.** 0.432 enrichment R

**Q.** With B14 as the binder, how does the binding signal read?
**A.** 1.61 enrichment R
